Results as given in PubChem BioAssay AID686979 (National Center for Advancing Translational Sciences (NCATS), 2013).
The campaign covered roughly 420,000 compounds. About 50,000 (12%) were called active. Inconclusive means that the source gave no clear call. Such entries were picked first, then a sample of the others. Calls follow the shape of the dose curve; as a rule, active = well fitted inhibition curve with a large enough effect; inconclusive = small, poorly fitted or top-dose-only effect; inactive = flat fitted curve, though single readings scatter. Potencies of inconclusive entries are left out as doubtful fits.

Assay: qHTS for Inhibitors of human tyrosyl-DNA phosphodiesterase 1 (TDP1): qHTS in cells in presence of CPT; also: nearly all actives have a fitted effect of over 55% in size
Details: chicken DT40 Tdp1-/-;hTDP1 cells + 20 nM CPT, ATP luminescence, 48 h; activity change, negative = growth inhibition: at 46.2 µM (top of the series) unless noted
Procedure, shortened: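 Chicken DT40 Tdp1-/- cells complemented with human TDP1, 400 cells/well, exposed to compounds plus 20 nM camptothecin for at least 48 h at 37 C; viability read as ATP content by CellTiter-Glo luminescence.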
% is scaled to controls: 0 for no effect and ±100 for the full control effect; potency is read from the fitted curve at half-maximal effect; tags tell the direction and shape of the fitted curve.

Which Potency does the source give for `O=C1CCc2cc(S(=O)(=O)NC(C(=O)Nc3cccc(F)c3)c3ccccc3)ccc2N1` (stereo unspecified) here?
Its Potency is inconclusive [inhibitor, single point].

With `C[C@H](OC(=O)c1[nH]cnc1C(=O)N1CCN(C(=O)OC(C)(C)C)CC1)c1ccccc1` as the compound, how does the Potency read?
The Potency was inconclusive [inhibitor, partial curve].

With `COCCCNC(=O)c1ccc2c3c(onc13)-c1ccccc1C2=O` as the compound, how does the Potency read?
Its Potency is active: 7.31 µM.

Which Potency does the source give for `CC(=O)c1cccc(-c2ccnc3c2CC(C(=O)Nc2ccccc2)O3)c1` (stereo unspecified) here?
Its Potency is active: 16.4 µM.

With `O=C(CSc1nnc(CNC(=O)C23CC4CC(CC(C4)C2)C3)n1-c1ccccc1)Nc1ccc(F)cc1` as the compound, how does the Potency read?
The Potency was inconclusive [inhibitor, single point].

With `O=C(Cn1c(=O)n(Cc2nc(-c3ccccc3)no2)c(=O)c2ccccc21)Nc1cccc(Cl)c1` as the compound, how does the Potency read?
The Potency was inconclusive [inhibitor, single point].

Which Potency does the source give for `Cc1ccc(C)c(Nc2nnc(-c3ccc(C)c(S(=O)(=O)NCC4CCCO4)c3)c3ccccc23)c1` (stereo unspecified) here?
Its Potency is active: 18.4 µM.

With `COc1ccc(/C=C\C(=O)O[C@@H]2C(O)C(O[C@@H]3OC(C)[C@H](O[C@@H]4OCC(O[C@H]5O[C@H](CO)[C@@H](O)C(O)C5O)C(O)C4O)C(O)C3O)[C@H](OC(=O)[C@]34CCC(C)(C)C[C@@H]3C3=CCC5[C@@]6(C)CC(O)C(O[C@@H]7OC(CO)C(O)[C@H](O)[C@H]7O)[C@@](C)(C(=O)O)C6CC[C@@]5(C)[C@]3(CO)CC4)O[C@H]2C)cc1` (stereo partly specified) as the compound, how does the Potency read?
The Potency was active: 3.66 µM.

For `O=c1[nH]c2ccccc2nc1C(Nc1ccccc1)c1ccccc1` (stereo unspecified), which Potency is on record?
Its Potency is inconclusive [inhibitor, single point].

Which Potency does the source give for `Nc1nc(NCCCN2CCOCC2)nc(Nc2ccc(Cl)cc2)c1[N+](=O)[O-]` here?
Its Potency is inconclusive [inhibitor, single point].

For `CCOc1ccc(N2C(=O)c3[nH]nc(-c4ccc(OC)cc4)c3C2c2cccs2)cc1` (stereo unspecified), which Potency is on record?
Its Potency is active: 23.1 µM.

Which Potency does the source give for `COc1ccc(S(=O)(=O)CC(=O)c2cc(C)c(O)c(C)c2)cc1` here?
Its Potency is inconclusive [inhibitor, single point].

For `CCOc1ccc(NC(=S)NC(=O)/C=C/c2ccc(Br)cc2)c([N+](=O)[O-])c1`, which Potency is on record?
Its Potency is inconclusive [inhibitor, single point].

For `COc1ccc(CN(C)C(=O)C(Cc2ccccc2)NC(=O)c2ccccc2)c(OC)c1OC` (stereo unspecified), which Potency is on record?
Its Potency is inconclusive [inhibitor, partial curve, poor fit].

With `N#C/C(=N\Nc1cccc(C(F)(F)F)c1)C(=O)c1ccsc1` as the compound, how does the Potency read?
Its Potency is active: 5.17 µM.

With `Cc1cccc(NC(=S)NCc2ccco2)n1` as the compound, how does the Potency read?
The Potency was “inactive”.

Which Potency does the source give for `O=C(O)C1C2OC3C(OC(=O)C31)C2Br` (stereo unspecified) here?
The Potency was “inactive”.

For `CCOc1ccc2nc(SCC(=O)NC(=O)NCc3ccco3)sc2c1`, which Potency is on record?
Its Potency is inconclusive [inhibitor, single point].

Which Potency does the source give for `O=C(/C=C/c1ccccc1)N1CCN(c2c(Cl)cccc2[N+](=O)[O-])CC1` here?
The Potency was active: 23.1 µM.

With `CCCN1C(=O)c2cc(C(=O)Nc3ccccc3C)ccc2C1Nc1ccccc1C` (stereo unspecified) as the compound, how does the Potency read?
The Potency was inconclusive [inhibitor, single point].

For `Cc1cc(Cl)cc(Br)c1OCCCN1C(=O)NC(C)(C)C1=O`, which Potency is on record?
The Potency was “inactive”.

For `CCc1ccccc1NC(=O)CCCN1C(=O)CCn2nc(-c3cn(C)c4ccccc34)cc21`, which Potency is on record?
Its Potency is “inactive”.

For `Cc1ccc([N+](=O)[O-])c(OCC(=O)OCC(=O)c2ccccc2)c1`, which Potency is on record?
The Potency was “inactive”.

Which Potency does the source give for `COc1cccc(NC(=O)c2oc3ccccc3c2NC(=O)C2CCCCC2)c1` here?
The Potency was inconclusive [inhibitor, single point].

With `COC(=O)c1cc(NC(=O)c2cc3sccc3n2Cc2ccc(Cl)cc2)cc(C(=O)OC)c1` as the compound, how does the Potency read?
The Potency was inconclusive [inhibitor, partial curve].

For `FC(F)(F)c1ccccc1Cc1c(-c2cccc(Cl)c2)nc2ccc(Cl)cn12`, which Potency is on record?
The Potency was inconclusive [inhibitor, single point].

For `Cc1cc(C)n(CC(O)CN(c2ccccc2)S(=O)(=O)c2ccccc2)n1` (stereo unspecified), which Potency is on record?
Its Potency is “inactive”.

Which Potency does the source give for `O=C(Nc1csc([N+](=O)[O-])c1)Nc1ccccc1Cl` here?
The Potency was active: 20.6 µM.

For `CCOCc1cc(CN2CCN(c3ccccc3OC)CC2)c(O)c2ncccc12`, which Potency is on record?
The Potency was active: 5.17 µM.

Which Potency does the source give for `O=C(c1nc2n(n1)C(c1ccc(Cl)cc1)C=C(c1ccccc1)N2)N1CCOCC1` (stereo unspecified) here?
The Potency was inconclusive [inhibitor, single point].

For `CCCC(C(=O)NC1CCCC1)N(Cc1cccs1)C(=O)c1snc(C(N)=O)c1N` (stereo unspecified), which activity change, negative = growth inhibition is on record?
Its activity change, negative = growth inhibition is inconclusive: -31.3% [inhibitor].

For `Cc1ccc(-c2noc(CCCC(=O)Nc3cccnc3)n2)cc1`, which Potency is on record?
The Potency was inconclusive [inhibitor, single point].

For `COC(=O)c1ccc(Cn2c(C)c(C(=O)NCc3cccs3)sc2=O)o1`, which Potency is on record?
The Potency was inconclusive [inhibitor, partial curve].

For `COc1ccc(C2CC(c3ccccc3)=NN2C(=O)COC(=O)C2(C)CC2(Cl)Cl)cc1` (stereo unspecified), which Potency is on record?
Its Potency is inconclusive [inhibitor, single point].

For `CO/N=C(\Cn1ncc(NC2CCCCC2)c(Br)c1=O)c1ccc(Cl)cc1`, which Potency is on record?
Its Potency is inconclusive [inhibitor, single point].

With `COc1cc(NS(=O)(=O)c2ccc(-c3ccc(=O)[nH]n3)o2)cc(OC)c1OC` as the compound, how does the Potency read?
The Potency was “inactive”.

Which Potency does the source give for `COc1ccc(NC(=O)C(=O)NCCN2CCN(C(=O)C(c3ccccc3)c3ccccc3)CC2)cc1` here?
The Potency was inconclusive [inhibitor, single point].

Which Potency does the source give for `CCc1ccccc1NC(=O)C1CCN(S(=O)(=O)c2ccc3c(c2)N(C(C)=O)CCO3)CC1` here?
The Potency was “inactive”.

Which Potency does the source give for `O=C(CN1CCN(c2ccccc2F)CC1)c1ccc(O)cc1O` here?
Its Potency is inconclusive [inhibitor, single point].

Which Potency does the source give for `Cc1ccc(OCC(=O)Nc2ccc3c(c2)nc(CCN2CCCCC2)n3C)cc1` here?
The Potency was inconclusive [inhibitor, single point].

For `CN(CC(=O)Nc1cccc(F)c1)C(=O)c1cccnc1Sc1ccccc1`, which Potency is on record?
The Potency was inconclusive [inhibitor, partial curve].
